Data taken from publication PMC4336329 (PLoS ONE, 2015).
The whole screen tested about 310,000 compounds, of which about 14,000 (4.5%) showed an effect of 50% or more. Effects have a minus sign here. The list shows a part of the results.

target: human ether-à-go-go-related gene (hERG) potassium channel (human, UniProt Q12809); assay: primary screen, population patch clamp on CHO cells stably expressing hERG
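Note: peak tail current of the secondary pulse compared with the same well before compound.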

Sequence of human ether-à-go-go-related gene (hERG) potassium channel (Q12809 whole entry, looked up): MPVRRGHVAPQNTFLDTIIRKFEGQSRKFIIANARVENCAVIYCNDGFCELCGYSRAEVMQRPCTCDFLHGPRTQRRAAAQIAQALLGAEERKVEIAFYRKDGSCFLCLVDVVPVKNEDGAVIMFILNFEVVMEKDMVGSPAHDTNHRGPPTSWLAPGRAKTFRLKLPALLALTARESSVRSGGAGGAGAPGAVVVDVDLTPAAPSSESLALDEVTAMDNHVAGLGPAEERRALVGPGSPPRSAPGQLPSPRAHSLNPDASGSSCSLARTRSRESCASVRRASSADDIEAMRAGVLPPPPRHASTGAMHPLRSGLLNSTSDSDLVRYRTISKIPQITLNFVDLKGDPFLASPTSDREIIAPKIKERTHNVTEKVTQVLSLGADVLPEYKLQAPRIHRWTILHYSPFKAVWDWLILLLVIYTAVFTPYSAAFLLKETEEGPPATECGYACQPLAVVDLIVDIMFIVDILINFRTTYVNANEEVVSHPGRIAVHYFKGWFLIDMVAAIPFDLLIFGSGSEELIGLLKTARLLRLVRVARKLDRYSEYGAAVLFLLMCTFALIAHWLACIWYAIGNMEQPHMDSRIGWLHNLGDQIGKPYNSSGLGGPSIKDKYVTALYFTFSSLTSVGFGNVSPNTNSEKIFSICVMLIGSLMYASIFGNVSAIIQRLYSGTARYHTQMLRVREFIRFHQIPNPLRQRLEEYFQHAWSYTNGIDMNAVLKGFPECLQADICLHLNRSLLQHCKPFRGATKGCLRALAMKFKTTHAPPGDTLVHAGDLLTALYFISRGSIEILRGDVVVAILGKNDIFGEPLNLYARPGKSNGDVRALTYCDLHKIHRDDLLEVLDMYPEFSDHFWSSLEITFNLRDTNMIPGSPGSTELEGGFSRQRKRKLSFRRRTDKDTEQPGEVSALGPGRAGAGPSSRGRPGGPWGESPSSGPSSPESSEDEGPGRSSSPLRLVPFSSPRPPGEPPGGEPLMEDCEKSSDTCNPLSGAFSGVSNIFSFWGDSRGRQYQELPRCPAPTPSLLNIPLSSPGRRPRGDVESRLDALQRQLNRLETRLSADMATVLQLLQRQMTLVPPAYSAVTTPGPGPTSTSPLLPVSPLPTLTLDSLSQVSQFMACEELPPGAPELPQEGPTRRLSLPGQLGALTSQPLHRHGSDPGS

| SMILES | hERG current change (%, negative = inhibition) at 10uM |
| --- | --- |
| COc1cccc(/C=N/NC(=O)c2cnccn2)c1OC | 12.5% |
| COc1ccc(S(=O)(=O)NCCCn2ccnc2)cc1Cl | 1.55% |
| CCN(CC)C(=O)COc1ccc(/C(C)=N/NC(=O)c2ccccc2-n2cccc2)cc1 | 2.79% |
| CC(=O)Oc1ccc(C(=O)Cc2ccc3ccccc3n2)c(O)c1C | 14.2% |
| CCCC(=O)NC(NC(=S)Nc1ccc(N=Nc2ccccc2)cc1)C(Cl)(Cl)Cl (stereo not shown) | 2.24% |
| CCc1c(C)nc(SCc2cccnc2)[nH]c1=O | 6.67% |
| Cc1nc(-c2ccc(C(=O)Nc3cccc(F)c3)cc2)cs1 | 20.6% |
| Cc1cc(C)nc(SCc2cn3ccccc3n2)n1 | 4.69% |
| N#Cc1c(Cl)nc(N/N=C/c2ccccc2)c(Cl)c1Cl | 4.71% |
| CCn1c(-c2cc(-c3cc(OC)ccc3OC)nc3ccccc23)n[nH]c1=S | -10.3% |
| C=CCOn1c(=O)c(-c2ccccc2)[n+]([O-])c2ccccc21 | 2.17% |
| Cn1ccc(=Nc2ccc(NC(=O)c3ccc(N=c4ccn(C)c5ccc([N+](=O)[O-])cc45)cc3)cc2)cc1 | -8.52% |
| CCCCCC(=O)N1CCCC(c2nc(-c3ccc(OC)cc3)no2)C1 (stereo not shown) | -24.9% |
| COc1ccc(C2C=C(c3ccc(Br)s3)Nc3ncnn32)cc1OC (stereo not shown) | -33% |
| O=C1Nc2ccccc2Sc2ccccc21 | 10% |
| N#Cc1cnn(-c2ccccc2)c1N | 8.8% |
| Nc1nc2n(n1)C(c1ccc(Cl)cc1)CC(c1ccc(F)cc1)N2 (stereo not shown) | -28.5% |
| CN(C)c1ccc(NC(=O)CN2CCC(C(=O)c3ccc(F)cc3)CC2)cc1 | -32.1% |
| CC(NC(=O)C(=O)N/N=C/c1ccc(Cl)cc1)c1ccccc1 (stereo not shown) | -21.2% |
| CC(C)(C)NC(=O)CSc1nnc(-c2ccncc2)n1Cc1ccccc1 | -7.27% |
| O=C(NC(=S)Nc1cccc2c(O)cccc12)c1ccccc1[N+](=O)[O-] | 14.6% |
| CCN1CCC[C@H]1CNC(=O)c1cc(S(N)(=O)=O)ccc1OC | -2.79% |
| Cc1cccc2[nH]c(CCNC(=O)C3CCC(=O)N(CCc4cccc(F)c4)C3)nc12 (stereo not shown) | 17.1% |
| Cc1ccc(S(=O)(=O)Nc2c(C(=O)O)[nH]c3ccccc23)cc1C | 4.02% |
| COC(=O)c1cc(NC(=O)Cc2ccccc2[N+](=O)[O-])ccc1Cl | -21.5% |
